# The full ranking holds about 2,900 compounds; the median of “NF-kB SEAP reporter activity, fold change vs agonist alone” is about 0.99, and the highest 2% start at about 2.6. Some of the results follow.
# Columns and labels:
# RAW-Dual [1] = experiment: NF-kB SEAP reporter activity, fold change vs agonist alone; higher = enhanced NF-kB activity; details: cytotoxicity flag (confluency mask): not cytotoxic
# How it was run: (§1)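 After 50 nL of library stock was delivered by pin tool to RAW-Dual macrophages (50,000 cells/well, DMEM, 384-well plates), a PRR agonist was added 1 h later and the plates were kept at 37 °C, 5% CO2. Twenty hours later, IRF was read from supernatant by QuantiLuc luminescence and NF-κB by QuantiBlue absorbance at 620 nm. Reporter activity is stated as fold change over agonist-alone wells. Wells with IncuCyte confluency under 70% of agonist controls in both mask sets were counted as cytotoxic.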
# RAW-Dual [2] = experiment: NF-kB SEAP reporter activity, fold change vs agonist alone; cytotoxicity flag (confluency mask): not cytotoxic; higher = enhanced NF-kB activity
# How it was run: as §1
# [3] = library stock concentration (final ~1000-fold dilution): 10 mM, agonist: Imiquimod (TLR7) […]
# [4] = library stock concentration (final ~1000-fold dilution): 10 mM, agonist: MPLA (TLR4) […]
# [5] = agonist: ODN 1826 (TLR9) 0.5 ug/mL
# [6] = agonist: Pam2CSK4 (TLR2/6) 0.1 ug/mL
# [7] = agonist: Pam3CSK4 (TLR2/1) 0.1 ug/mL
# [8] = library stock concentration (final ~1000-fold dilution): 2 mM, agonist: Imiquimod (TLR7) […]
# [9] = library stock concentration (final ~1000-fold dilution): 2 mM, agonist: MPLA (TLR4) […]
structure (smiles),measurement,setting,value
COc1cc(OC)c(C(=O)CCCN2CCCC2)c(OC)c1.Cl,NF-kB SEAP reporter activity,RAW-Dual [1]; [3],0.901
same,NF-kB SEAP reporter activity,RAW-Dual [1]; [4],0.977
COc1cc(OC)c(C(=O)CCCN2CCCC2)c(OC)c1.Cl (library stock concentration (final ~1000-fold dilution): 10 mM),NF-kB SEAP reporter activity,RAW-Dual [2]; agonist: LPS (TLR4) 0.1 ug/mL,1.16
same,NF-kB SEAP reporter activity,RAW-Dual [2]; [5],1.04
same,NF-kB SEAP reporter activity,RAW-Dual [2]; [6],1.11
same,NF-kB SEAP reporter activity,RAW-Dual [2]; [7],1.17
O=C(Nc1ccc([N+](=O)[O-])cc1Cl)c1cc(Cl)ccc1O (library stock concentration (final ~1000-fold dilution): 10 mM),NF-kB SEAP reporter activity,RAW-Dual [2]; agonist: LPS (TLR4) 0.1 ug/mL,6.96
O=C(Nc1cccnc1)N1CCC(Cc2cccc(Oc3ccc(C(F)(F)F)cn3)c2)CC1,NF-kB SEAP reporter activity,RAW-Dual [1]; [3],1.05
same,NF-kB SEAP reporter activity,RAW-Dual [1]; [4],1.46
O=C(Nc1cccnc1)N1CCC(Cc2cccc(Oc3ccc(C(F)(F)F)cn3)c2)CC1 (library stock concentration (final ~1000-fold dilution): 10 mM),NF-kB SEAP reporter activity,RAW-Dual [2]; agonist: LPS (TLR4) 0.1 ug/mL,2.31
same,NF-kB SEAP reporter activity,RAW-Dual [2]; [5],1.06
same,NF-kB SEAP reporter activity,RAW-Dual [2]; [6],0.757
same,NF-kB SEAP reporter activity,RAW-Dual [2]; [7],0.921
Cc1cc(C)nc(NS(=O)(=O)c2ccc(NC(=S)NC(=O)COc3ccc(Br)cc3Cl)cc2)n1 (library stock concentration (final ~1000-fold dilution): 10 mM),NF-kB SEAP reporter activity,RAW-Dual [2]; agonist: LPS (TLR4) 0.1 ug/mL,1.5
same,NF-kB SEAP reporter activity,RAW-Dual [2]; [5],0.891
same,NF-kB SEAP reporter activity,RAW-Dual [2]; [6],1.07
same,NF-kB SEAP reporter activity,RAW-Dual [2]; [7],1.01
Cc1cc(C)nc(NS(=O)(=O)c2ccc(NC(=S)NC(=O)COc3ccc(Br)cc3Cl)cc2)n1,NF-kB SEAP reporter activity,RAW-Dual [1]; [3],0.876
same,NF-kB SEAP reporter activity,RAW-Dual [1]; [4],1.15
Cc1cccc(-c2nn3c(c2-c2ccnc4ccc(C(N)=O)cc24)CCC3)n1 (library stock concentration (final ~1000-fold dilution): 10 mM),NF-kB SEAP reporter activity,RAW-Dual [2]; agonist: LPS (TLR4) 0.1 ug/mL,1.59
same,NF-kB SEAP reporter activity,RAW-Dual [2]; [5],1.03
same,NF-kB SEAP reporter activity,RAW-Dual [2]; [6],1.05
same,NF-kB SEAP reporter activity,RAW-Dual [2]; [7],1.21
Cc1cccc(-c2nn3c(c2-c2ccnc4ccc(C(N)=O)cc24)CCC3)n1,NF-kB SEAP reporter activity,RAW-Dual [1]; [3],1.13
same,NF-kB SEAP reporter activity,RAW-Dual [1]; [4],1.48
O=C1Nc2ccccc2C1=O (library stock concentration (final ~1000-fold dilution): 10 mM),NF-kB SEAP reporter activity,RAW-Dual [2]; agonist: LPS (TLR4) 0.1 ug/mL,1.37
same,NF-kB SEAP reporter activity,RAW-Dual [2]; [5],0.973
same,NF-kB SEAP reporter activity,RAW-Dual [2]; [6],1.3
same,NF-kB SEAP reporter activity,RAW-Dual [2]; [7],1
O=C1Nc2ccccc2C1=O,NF-kB SEAP reporter activity,RAW-Dual [1]; [4],0.991
N#Cc1ncccn1,NF-kB SEAP reporter activity,RAW-Dual [1]; [8],1
same,NF-kB SEAP reporter activity,RAW-Dual [1]; [9],1
N#Cc1ncccn1 (library stock concentration (final ~1000-fold dilution): 2 mM),NF-kB SEAP reporter activity,RAW-Dual [2]; agonist: LPS (TLR4) 0.1 ug/mL,1.32
same,NF-kB SEAP reporter activity,RAW-Dual [2]; [5],1.02
same,NF-kB SEAP reporter activity,RAW-Dual [2]; [6],1.09
same,NF-kB SEAP reporter activity,RAW-Dual [2]; [7],1.05
CN1C(C(=O)Nc2ccccn2)=C(O)c2sc(Cl)cc2S1(=O)=O (library stock concentration (final ~1000-fold dilution): 2 mM),NF-kB SEAP reporter activity,RAW-Dual [2]; agonist: LPS (TLR4) 0.1 ug/mL,1.38
same,NF-kB SEAP reporter activity,RAW-Dual [2]; [5],0.936
same,NF-kB SEAP reporter activity,RAW-Dual [2]; [6],0.882
same,NF-kB SEAP reporter activity,RAW-Dual [2]; [7],0.835
CN1C(C(=O)Nc2ccccn2)=C(O)c2sc(Cl)cc2S1(=O)=O,NF-kB SEAP reporter activity,RAW-Dual [1]; [8],0.891
same,NF-kB SEAP reporter activity,RAW-Dual [1]; [9],1.08
C=C1CCC2C(C)(COC(=O)CCC(=O)O)C(OC(=O)CCC(=O)O)CCC2(C)C1C=CC1=CCOC1=O (centres undefined),NF-kB SEAP reporter activity,RAW-Dual [1]; [3],0.865
same,NF-kB SEAP reporter activity,RAW-Dual [1]; [4],1.03
C=C1CCC2C(C)(COC(=O)CCC(=O)O)C(OC(=O)CCC(=O)O)CCC2(C)C1C=CC1=CCOC1=O (centres undefined) (library stock concentration (final ~1000-fold dilution): 10 mM),NF-kB SEAP reporter activity,RAW-Dual [2]; agonist: LPS (TLR4) 0.1 ug/mL,1.34
same,NF-kB SEAP reporter activity,RAW-Dual [2]; [5],0.979
same,NF-kB SEAP reporter activity,RAW-Dual [2]; [6],1.26
same,NF-kB SEAP reporter activity,RAW-Dual [2]; [7],1.02
Cc1ccc(CNc2ncnc3ccc(-c4ccc(CO)o4)cc23)o1 (library stock concentration (final ~1000-fold dilution): 10 mM),NF-kB SEAP reporter activity,RAW-Dual [2]; agonist: LPS (TLR4) 0.1 ug/mL,1.16
same,NF-kB SEAP reporter activity,RAW-Dual [2]; [5],1.35
same,NF-kB SEAP reporter activity,RAW-Dual [2]; [6],1.21
same,NF-kB SEAP reporter activity,RAW-Dual [2]; [7],1.4
Cc1ccc(CNc2ncnc3ccc(-c4ccc(CO)o4)cc23)o1,NF-kB SEAP reporter activity,RAW-Dual [1]; [3],1.07
same,NF-kB SEAP reporter activity,RAW-Dual [1]; [4],1.24
